Measured values taken from the supplement of paper PMC8728848.
Some of the results follow.

Assays:
Experiment in all cases: glycan array binding signal (z-score within array); higher = stronger binding
Conditions in all cases: glycan notation: IUPAC condensed, linker removed
[1] = target: Fuc(a1-2)[Gal(a1-3)]Gal(b1-4)GlcNAc(b1-2)Man
In short: (§1)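 From the Consortium for Functional Glycomics database, 3228 arrays were curated, keeping only those whose protein sequence was available. Binding is given as a within-array Z-score averaged across arrays sharing a protein sequence and across linkers. Negative Z-scores can be read as non-binding.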

[2] = target: Fuc(a1-2)[Gal(a1-3)]Gal(b1-4)GlcNAc(b1-2)Man(a1-3)[Fuc(a1-2)[Gal(a1-3)]Gal(b1-4)GlcNAc(b1-2)Man(a1-6)]Man(b1-4)GlcNAc(b1-4)GlcNAc
In short: as §1

[3] = target: Fuc(a1-2)[Gal(a1-3)]Gal(b1-4)GlcNAc(b1-2)Man(a1-3)[Fuc(a1-2)[Gal(a1-3)]Gal(b1-4)GlcNAc(b1-2)Man(a1-6)]Man(b1-4)GlcNAc(b1-4)[Fuc(a1-6)]GlcNAc
In short: as §1

[4] = target: Fuc(a1-2)[Gal(a1-3)]Gal(b1-4)GlcNAc(b1-3)GalNAc
In short: as §1

[5] = target: Fuc(a1-2)[Gal(a1-3)]Gal(b1-4)GlcNAc(b1-6)GalNAc
In short: as §1

[6] = target: Fuc(a1-2)[Gal(a1-3)]Gal(b1-4)[Fuc(a1-3)]Glc
In short: as §1

[7] = target: Fuc(a1-2)[Gal(a1-3)]Gal(b1-4)[Fuc(a1-3)]GlcNAc
In short: as §1

[8] = target: Fuc(a1-2)[Gal(a1-3)]Gal(b1-4)[Fuc(a1-3)]GlcNAc(b1-3)GalNAc
In short: as §1

[9] = target: Fuc(a1-2)[Gal(a1-4)]Gal(b1-4)GlcNAc
In short: as §1

[10] = target: Fuc(a1-2)[GalNAc(a1-3)]Gal
In short: as §1

[11] = target: Fuc(a1-2)[GalNAc(a1-3)]Gal(b1-3)GalNAc(a1-3)[Fuc(a1-2)]Gal(b1-4)GlcNAc
In short: as §1

[12] = target: Fuc(a1-2)[GalNAc(a1-3)]Gal(b1-3)GalNAc(b1-3)Gal(a1-4)Gal(b1-4)Glc
In short: as §1

[13] = target: Fuc(a1-2)[GalNAc(a1-3)]Gal(b1-3)GlcNAc
In short: as §1

[14] = target: Fuc(a1-2)[GalNAc(a1-3)]Gal(b1-3)GlcNAc(b1-2)Man(a1-3)[Fuc(a1-2)[GalNAc(a1-3)]Gal(b1-3)GlcNAc(b1-2)Man(a1-6)]Man(b1-4)GlcNAc(b1-4)GlcNAc
In short: as §1

[15] = target: Fuc(a1-2)[GalNAc(a1-3)]Gal(b1-3)GlcNAc(b1-2)Man(a1-3)[Fuc(a1-2)[GalNAc(a1-3)]Gal(b1-3)GlcNAc(b1-2)Man(a1-6)]Man(b1-4)GlcNAc(b1-4)[Fuc(a1-6)]GlcNAc
In short: as §1

[16] = target: Fuc(a1-2)[GalNAc(a1-3)]Gal(b1-3)GlcNAc(b1-3)GalNAc
In short: as §1

[17] = target: Fuc(a1-2)[GalNAc(a1-3)]Gal(b1-3)GlcNAc(b1-6)GalNAc
In short: as §1

[18] = target: Fuc(a1-2)[GalNAc(a1-3)]Gal(b1-4)Glc
In short: as §1

[19] = target: Fuc(a1-2)[GalNAc(a1-3)]Gal(b1-4)GlcNAc
In short: as §1

[20] = target: Fuc(a1-2)[GalNAc(a1-3)]Gal(b1-4)GlcNAc(b1-2)Man
In short: as §1

[21] = target: Fuc(a1-2)[GalNAc(a1-3)]Gal(b1-4)GlcNAc(b1-2)Man(a1-3)[Fuc(a1-2)[GalNAc(a1-3)]Gal(b1-4)GlcNAc(b1-2)Man(a1-6)]Man(b1-4)GlcNAc(b1-4)GlcNAc
In short: as §1

[22] = target: Fuc(a1-2)[GalNAc(a1-3)]Gal(b1-4)GlcNAc(b1-2)Man(a1-3)[Fuc(a1-2)[GalNAc(a1-3)]Gal(b1-4)GlcNAc(b1-2)Man(a1-6)]Man(b1-4)GlcNAc(b1-4)[Fuc(a1-6)]GlcNAc
In short: as §1

[23] = target: Fuc(a1-2)[GalNAc(a1-3)]Gal(b1-4)GlcNAc(b1-3)Gal(b1-4)GlcNAc
In short: as §1

[24] = target: Fuc(a1-2)[GalNAc(a1-3)]Gal(b1-4)GlcNAc(b1-3)Gal(b1-4)GlcNAc(b1-3)Gal(b1-4)GlcNAc
In short: as §1

[25] = target: Fuc(a1-2)[GalNAc(a1-3)]Gal(b1-4)GlcNAc(b1-3)GalNAc
In short: as §1

[26] = target: Fuc(a1-2)[GalNAc(a1-3)]Gal(b1-4)GlcNAc(b1-3)[Fuc(a1-2)[GalNAc(a1-3)]Gal(b1-4)GlcNAc(b1-6)]GalNAc
In short: as §1

[27] = target: Fuc(a1-2)[GalNAc(a1-3)]Gal(b1-4)GlcNAc(b1-6)GalNAc
In short: as §1

[28] = target: Fuc(a1-2)[GalNAc(a1-3)]Gal(b1-4)[Fuc(a1-3)]GlcNAc
In short: as §1

[29] = target: Fuc(a1-2)[GalNAc(a1-3)]Gal(b1-4)[Fuc(a1-3)]GlcNAc(b1-3)GalNAc
In short: as §1

[30] = target: Fuc(a1-2)[GalNAc(a1-4)]Gal(b1-4)GlcNAc
In short: as §1

[31] = target: Fuc(a1-2)[GalNAc(b1-3)]Gal
In short: as §1

[32] = target: Fuc(a1-3)GlcNAc
In short: as §1

[33] = target: Fuc(a1-3)[Gal(b1-4)]Glc6S
In short: as §1

[34] = target: Fuc(a1-3)[Gal(b1-4)]GlcNAc
In short: as §1

[35] = target: Fuc(a1-3)[Gal(b1-4)]GlcNAc(b1-2)Man
In short: as §1

[36] = target: Fuc(a1-3)[Gal(b1-4)]GlcNAc(b1-2)Man(a1-3)[Fuc(a1-3)[Gal(b1-4)]GlcNAc(b1-2)Man(a1-6)]Man(b1-4)GlcNAc(b1-4)GlcNAc
In short: as §1

[37] = target: Fuc(a1-3)[Gal(b1-4)]GlcNAc(b1-2)Man(a1-3)[Fuc(a1-3)[Gal(b1-4)]GlcNAc(b1-2)Man(a1-6)]Man(b1-4)GlcNAc(b1-4)[Fuc(a1-6)]GlcNAc
In short: as §1

B1: DBA (Dolichos biflorus) (protein)
chain: ANIQSFSFKNFNSPSFILQGDATVSSGKLQLTKVKENGFPLRFPSGRAFYSSPIQIYDKFTGAVASWATSFTVKISAPSKASFADGIAFALVPVGSEPRRNGGYLGVFDSDVYNNSAQTVAVEFDTLSNSGWDPSMKHIGIDVNSIKSIATVSWDLANGENAEILITYNAATSLLVVSLVHPSRRTSYILSERVDITNELPEYVGVGFSATTGLSEGYIETHDVLSWSFASRLPDDSTAEPLDLARYLVRNVL
[1]
  glycan array binding signal (z-score): -0.113
[2]
  glycan array binding signal (z-score): -0.043
[3]
  glycan array binding signal (z-score): -0.079
[4]
  glycan array binding signal (z-score): -0.118
[5]
  glycan array binding signal (z-score): -0.113
[6]
  glycan array binding signal (z-score): -0.123
[7]
  glycan array binding signal (z-score): -0.088
[8]
  glycan array binding signal (z-score): 0.02
[9]
  glycan array binding signal (z-score): -0.065
[10]
  glycan array binding signal (z-score): 0.024
[11]
  glycan array binding signal (z-score): -0.074
[12]
  glycan array binding signal (z-score): -0.154
[13]
  glycan array binding signal (z-score): -0.129
[14]
  glycan array binding signal (z-score): -0.075
[15]
  glycan array binding signal (z-score): -0.144
[16]
  glycan array binding signal (z-score): -0.071
[17]
  glycan array binding signal (z-score): -0.113
[18]
  glycan array binding signal (z-score): 0.577
[19]
  glycan array binding signal (z-score): 0.575
[20]
  glycan array binding signal (z-score): -0.09
[21]
  glycan array binding signal (z-score): 0.179
[22]
  glycan array binding signal (z-score): -0.058
[23]
  glycan array binding signal (z-score): 0.057
[24]
  glycan array binding signal (z-score): 0.061
[25]
  glycan array binding signal (z-score): -0.1
[26]
  glycan array binding signal (z-score): -0.099
[27]
  glycan array binding signal (z-score): -0.143
[28]
  glycan array binding signal (z-score): 0.046
[29]
  glycan array binding signal (z-score): 0.333
[30]
  glycan array binding signal (z-score): -0.082
[31]
  glycan array binding signal (z-score): -0.149
[32]
  glycan array binding signal (z-score): -0.09
[33]
  glycan array binding signal (z-score): -0.037
[34]
  glycan array binding signal (z-score): -0.11
[35]
  glycan array binding signal (z-score): -0.116
[36]
  glycan array binding signal (z-score): -0.081
[37]
  glycan array binding signal (z-score): 0.13
